Measured values as given in article PMC9911399, “Two distinct binding modes provide the RNA-binding protein RbFox with extraordinary sequence specificity”.
Numbering of substitutions follows the chain as printed; changes in the protein carry UniProt numbers. This is one part of the list.

T1: RBFOX1 RRM RbFoxmut (Fox-RRM*) (Homo sapiens, UniProt Q9NWB1 109-208, R118D;E147R;N151S;E152T)
T1 sequence: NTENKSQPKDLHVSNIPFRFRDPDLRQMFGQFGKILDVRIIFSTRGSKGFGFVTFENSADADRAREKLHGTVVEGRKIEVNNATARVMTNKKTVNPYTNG

B1: GCUACAC (DNA:RNA)
RNA: GGGAGACCGGAAUUCAGAUUGUCCGCUACACUUAAAUCCCGUCGUAGCCACCA
DNA 1: CAATCTGAATTCCGGTCTCCC
DNA 2: TGGTGGCTACGACGGGATT
B2: CACGGGC (DNA:RNA)
RNA: B1 RNA with G25C, C26A, U27C, A28G, C29G, A30G
DNA 1: CAATCTGAATTCCGGTCTCCC
DNA 2: TGGTGGCTACGACGGGATT
B3: CAAUCAG (DNA:RNA)
RNA: B1 RNA with G25C, C26A, U27A, A28U, C31G
DNA 1: CAATCTGAATTCCGGTCTCCC
DNA 2: TGGTGGCTACGACGGGATT
B4: GCACUGG (DNA:RNA)
RNA: B1 RNA with U27A, A28C, C29U, A30G, C31G
DNA 1: CAATCTGAATTCCGGTCTCCC
DNA 2: TGGTGGCTACGACGGGATT
B5: UAGACUU (DNA:RNA)
RNA: B1 RNA with G25U, C26A, U27G, A30U, C31U
DNA 1: CAATCTGAATTCCGGTCTCCC
DNA 2: TGGTGGCTACGACGGGATT
B6: CUCGUGA (DNA:RNA)
RNA: GGGAGACCGGAAUUCAGAUUGUCCCUCGUGAUUAAAUCCCGUCGUAGCCACCA
DNA 1: CAATCTGAATTCCGGTCTCCC
DNA 2: TGGTGGCTACGACGGGATT
B7: CGGAUAG (DNA:RNA)
RNA: B6 RNA with U26G, C27G, G28A, G30A, A31G
DNA 1: CAATCTGAATTCCGGTCTCCC
DNA 2: TGGTGGCTACGACGGGATT
B8: UGCCCAA (DNA:RNA)
RNA: B6 RNA with C25U, U26G, G28C, U29C, G30A
DNA 1: CAATCTGAATTCCGGTCTCCC
DNA 2: TGGTGGCTACGACGGGATT
B9: GCGAAUC (DNA:RNA)
RNA: B1 RNA with U27G, C29A, A30U
DNA 1: CAATCTGAATTCCGGTCTCCC
DNA 2: TGGTGGCTACGACGGGATT
B10: CCCUUCG (DNA:RNA)
RNA: B6 RNA with U26C, G28U, G30C, A31G
DNA 1: CAATCTGAATTCCGGTCTCCC
DNA 2: TGGTGGCTACGACGGGATT
B11: AGACGGG (DNA:RNA)
RNA: B6 RNA with C25A, U26G, C27A, G28C, U29G, A31G
DNA 1: CAATCTGAATTCCGGTCTCCC
DNA 2: TGGTGGCTACGACGGGATT
B12: UCUGUGA (DNA:RNA)
RNA: B6 RNA with C25U, U26C, C27U
DNA 1: CAATCTGAATTCCGGTCTCCC
DNA 2: TGGTGGCTACGACGGGATT
B13: ACUCCUG (DNA:RNA)
RNA: B1 RNA with G25A, A28C, A30U, C31G
DNA 1: CAATCTGAATTCCGGTCTCCC
DNA 2: TGGTGGCTACGACGGGATT
B14: AGGGGUU (DNA:RNA)
RNA: B6 RNA with C25A, U26G, C27G, U29G, G30U, A31U
DNA 1: CAATCTGAATTCCGGTCTCCC
DNA 2: TGGTGGCTACGACGGGATT
B15: UACACAG (DNA:RNA)
RNA: B1 RNA with G25U, C26A, U27C, C31G
DNA 1: CAATCTGAATTCCGGTCTCCC
DNA 2: TGGTGGCTACGACGGGATT
B16: UGUAUAG (DNA:RNA)
RNA: B1 RNA with G25U, C26G, C29U, C31G
DNA 1: CAATCTGAATTCCGGTCTCCC
DNA 2: TGGTGGCTACGACGGGATT
B17: AUUGCGU (DNA:RNA)
RNA: B6 RNA with C25A, C27U, U29C, A31U
DNA 1: CAATCTGAATTCCGGTCTCCC
DNA 2: TGGTGGCTACGACGGGATT
B18: CUCCUCA (DNA:RNA)
RNA: B6 RNA with G28C, G30C
DNA 1: CAATCTGAATTCCGGTCTCCC
DNA 2: TGGTGGCTACGACGGGATT
B19: UGGGUAC (DNA:RNA)
RNA: B6 RNA with C25U, U26G, C27G, G30A, A31C
DNA 1: CAATCTGAATTCCGGTCTCCC
DNA 2: TGGTGGCTACGACGGGATT
B20: CAAAAGA (DNA:RNA)
RNA: B6 RNA with U26A, C27A, G28A, U29A
DNA 1: CAATCTGAATTCCGGTCTCCC
DNA 2: TGGTGGCTACGACGGGATT
B21: ACUACUA (DNA:RNA)
RNA: B1 RNA with G25A, A30U, C31A
DNA 1: CAATCTGAATTCCGGTCTCCC
DNA 2: TGGTGGCTACGACGGGATT
B22: CUGCAGA (DNA:RNA)
RNA: B6 RNA with C27G, G28C, U29A
DNA 1: CAATCTGAATTCCGGTCTCCC
DNA 2: TGGTGGCTACGACGGGATT
B23: CUUCUUC (DNA:RNA)
RNA: B6 RNA with C27U, G28C, G30U, A31C
DNA 1: CAATCTGAATTCCGGTCTCCC
DNA 2: TGGTGGCTACGACGGGATT
B24: GUGCCGC (DNA:RNA)
RNA: B1 RNA with C26U, U27G, A28C, A30G
DNA 1: CAATCTGAATTCCGGTCTCCC
DNA 2: TGGTGGCTACGACGGGATT
B25: AACCCUU (DNA:RNA)
RNA: B6 RNA with C25A, U26A, G28C, U29C, G30U, A31U
DNA 1: CAATCTGAATTCCGGTCTCCC
DNA 2: TGGTGGCTACGACGGGATT
B26: GCCAUUG (DNA:RNA)
RNA: B1 RNA with U27C, C29U, A30U, C31G
DNA 1: CAATCTGAATTCCGGTCTCCC
DNA 2: TGGTGGCTACGACGGGATT
B27: GUCGCAC (DNA:RNA)
RNA: B1 RNA with C26U, U27C, A28G
DNA 1: CAATCTGAATTCCGGTCTCCC
DNA 2: TGGTGGCTACGACGGGATT
B28: CGCGGAG (DNA:RNA)
RNA: B6 RNA with U26G, U29G, G30A, A31G
DNA 1: CAATCTGAATTCCGGTCTCCC
DNA 2: TGGTGGCTACGACGGGATT
B29: GCUGGGA (DNA:RNA)
RNA: B6 RNA with C25G, U26C, C27U, U29G
DNA 1: CAATCTGAATTCCGGTCTCCC
DNA 2: TGGTGGCTACGACGGGATT
B30: AGAGCAG (DNA:RNA)
RNA: B1 RNA with G25A, C26G, U27A, A28G, C31G
DNA 1: CAATCTGAATTCCGGTCTCCC
DNA 2: TGGTGGCTACGACGGGATT
B31: AUUUCUG (DNA:RNA)
RNA: B1 RNA with G25A, C26U, A28U, A30U, C31G
DNA 1: CAATCTGAATTCCGGTCTCCC
DNA 2: TGGTGGCTACGACGGGATT

target: T1, RBFOX1 RRM RbFoxmut (Fox-RRM*); assay: EMSA; HiTS-Eq, 1 nM pool, 10 min; buffer printed only for the single-RNA assays: 10 mM Tris pH 7.5, 150 mM NaCl, 3.4 mM EDTA, 0.001% NP-40, 30 C; conditions: tags: His6 N-terminal (pET28a); label: 5' 32P
How it was run: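 Purified RbFox RRM (wild type or mutant) was equilibrated for 10 min in 50 µL with 1 nM of a 5′-radiolabelled pool of RNA with 7 randomized nucleotides, its flanks annealed to DNA oligonucleotides, across increasing protein concentrations. Free RNA was separated by 8% native PAGE, excised, reverse-transcribed, PCR-barcoded and sequenced on an Illumina HiSeq 2500. Relative association constants came from read-count changes of each variant against the control reaction, normalised to the cognate motif.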

**Q.** For B1, which binding signal is on record?
**A.** The binding signal was 0.121 KA relative to UGCAUGU.

**Q.** Which binding signal does the source give for B2 here?
**A.** Its binding signal is 0.09 KA relative to UGCAUGU.

**Q.** For B3, which binding signal is on record?
**A.** The binding signal was 0.0574 KA relative to UGCAUGU.

**Q.** Which binding signal does the source give for B4 here?
**A.** The binding signal was 0.0976 KA relative to UGCAUGU.

**Q.** How did the binding signal turn out when B5 was run?
**A.** Its binding signal is 0.0552 KA relative to UGCAUGU.

**Q.** For B6, which binding signal is on record?
**A.** Its binding signal is 0.125 KA relative to UGCAUGU.

**Q.** With B7 as the binder, how does the binding signal read?
**A.** Its binding signal is 0.0992 KA relative to UGCAUGU.

**Q.** B8 was tested. Which binding signal did it give?
**A.** Its binding signal is 0.0646 KA relative to UGCAUGU.

**Q.** For B9, which binding signal is on record?
**A.** The binding signal was 0.385 KA relative to UGCAUGU.

**Q.** B10 was tested. Which binding signal did it give?
**A.** Its binding signal is 0.092 KA relative to UGCAUGU.

**Q.** How did the binding signal turn out when B11 was run?
**A.** The binding signal was 0.103 KA relative to UGCAUGU.

**Q.** B12 was tested. Which binding signal did it give?
**A.** Its binding signal is 0.104 KA relative to UGCAUGU.

**Q.** How did the binding signal turn out when B13 was run?
**A.** The binding signal was 0.0708 KA relative to UGCAUGU.

**Q.** Which binding signal does the source give for B14 here?
**A.** Its binding signal is 0.0984 KA relative to UGCAUGU.

**Q.** Which binding signal does the source give for B15 here?
**A.** The binding signal was 0.0626 KA relative to UGCAUGU.

**Q.** Which binding signal does the source give for B16 here?
**A.** Its binding signal is 0.138 KA relative to UGCAUGU.

**Q.** B17 was tested. Which binding signal did it give?
**A.** Its binding signal is 0.16 KA relative to UGCAUGU.

**Q.** How did the binding signal turn out when B18 was run?
**A.** Its binding signal is 0.0817 KA relative to UGCAUGU.

**Q.** B19 was tested. Which binding signal did it give?
**A.** The binding signal was 0.112 KA relative to UGCAUGU.

**Q.** With B20 as the binder, how does the binding signal read?
**A.** Its binding signal is 0.0824 KA relative to UGCAUGU.

**Q.** With B21 as the binder, how does the binding signal read?
**A.** Its binding signal is 0.152 KA relative to UGCAUGU.

**Q.** How did the binding signal turn out when B22 was run?
**A.** The binding signal was 0.136 KA relative to UGCAUGU.

**Q.** B23 was tested. Which binding signal did it give?
**A.** The binding signal was 0.0471 KA relative to UGCAUGU.

**Q.** B24 was tested. Which binding signal did it give?
**A.** The binding signal was 0.101 KA relative to UGCAUGU.

**Q.** B25 was tested. Which binding signal did it give?
**A.** Its binding signal is 0.0783 KA relative to UGCAUGU.

**Q.** B26 was tested. Which binding signal did it give?
**A.** The binding signal was 0.115 KA relative to UGCAUGU.

**Q.** Which binding signal does the source give for B27 here?
**A.** Its binding signal is 0.0943 KA relative to UGCAUGU.

**Q.** With B28 as the binder, how does the binding signal read?
**A.** The binding signal was 0.123 KA relative to UGCAUGU.

**Q.** With B29 as the binder, how does the binding signal read?
**A.** Its binding signal is 0.0829 KA relative to UGCAUGU.

**Q.** B30 was tested. Which binding signal did it give?
**A.** The binding signal was 0.0918 KA relative to UGCAUGU.

**Q.** B31 was tested. Which binding signal did it give?
**A.** Its binding signal is 0.0727 KA relative to UGCAUGU.
